Results published in the supplement of paper PMC12217912.
This is one part of the list. Sequences were assembled here from the parent chain. Values near 0.05 are background.

B1: TEV protease; numbered along this chain (parent)
chain: MGESLFKGPRDYNPISSSICHLTNESDGHTTSLYGIGFGPFIITNKHLFRRNNGTLVVQSLHGVFKVKDTTTLQQHLVDGRDMIIIRMPKDFPPFPQKLKFREPQREERICLVTTNFQTKSMSSMVSDTSCTFPSGDGIFWKHWIQTKDGQCGSPLVSTRDGFIVGIHSASNFTNTNNYFTSVPKNFMELLTNQEAQQWVSGWRLNADSVLWGGHKVFMVKPEEPFQPVKEATQL

Variants of: B1
Experiment: raw area under fraction-flipped curve 0-4 h after induction (AUC4h, not background-subtracted), DNA-recorder readout of cleavage of the substrate (dimensionless); higher = more cleavage of the substrate by the protease variant
Settings: temperature: 34 °C; time window: 0-4 h after rhamnose induction
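Further: Bxb1 expression induced with 0.2% (w/v) L-rhamnose at OD600 near 0.5, cultures sampled hourly, flipped fraction per protease–substrate barcode pair counted by paired-end Illumina sequencing.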

| Variant | area with substrate ENLYDQS | area with substrate ENLYEQS | area with substrate ENLYGQS | area with substrate ENLYHQS | area with substrate ENLYIQS | area with substrate ENLYKQS | area with substrate ENLYLQS | area with substrate ENLYMQS | area with substrate ENLYNQS | area with substrate ENLYPQS | area with substrate ENLYQQS | area with substrate ENLYRQS | area with substrate ENLYSQS | area with substrate ENLYTQS | area with substrate ENLYVQS | area with substrate ENLYWQS | area with substrate ENLYYQS |
| --- | --- | --- | --- | --- | --- | --- | --- | --- | --- | --- | --- | --- | --- | --- | --- | --- | --- |
| V220C | 0.0667 | 0.0676 | 0.0298 | 0.0694 | 0.117 | 0.0375 | 0.0953 | 0.0866 | 0.0655 | 0.0751 | 0.0581 | 0.0731 | 0.0947 | 0.0737 | 0.0974 | 0.0843 | – |
| Q74C | 0.0632 | 0.0695 | 0.0523 | 0.0756 | 0.0789 | – | – | – | 0.0597 | 0.0759 | 0.0594 | 0.0521 | 0.043 | – | 0.105 | 0.0978 | 0.0544 |
| P228Q | 0.0615 | 0.0701 | 0.068 | 0.0439 | – | 0.0638 | – | 0.0919 | 0.0648 | – | – | 0.0611 | 0.0842 | 0.0808 | 0.12 | 0.0677 | – |
| F180E | 0.0565 | 0.0391 | 0.0527 | – | – | 0.0074 | – | 0.0261 | 0.033 | – | – | – | – | 0.0481 | 0.0565 | – | – |
| F180W | 0.127 | 0.0619 | 0.0586 | 0.0564 | – | 0.0591 | – | – | – | 0.0703 | 0.0551 | 0.0583 | 0.0513 | – | 0.0858 | – | – |
| F180G | 0.0475 | 0.0581 | 0.0473 | 0.0523 | 0.0681 | 0.041 | 0.0452 | 0.0615 | 0.0638 | 0.0463 | – | 0.0436 | – | – | – | 0.0739 | – |
| K230P | 0.0528 | 0.0711 | – | 0.0594 | 0.105 | 0.0597 | 0.0761 | 0.0657 | 0.0767 | 0.0742 | – | 0.0566 | 0.0417 | 0.0787 | – | – | 0.0422 |
| K221V | 0.0644 | 0.0596 | 0.0551 | 0.0599 | 0.0983 | 0.0659 | – | – | 0.0618 | 0.0608 | – | 0.0678 | – | 0.0681 | – | 0.0724 | – |
| P40Y | 0.0643 | 0.0622 | 0.0452 | 0.0662 | 0.114 | 0.0907 | 0.0717 | 0.0748 | 0.0709 | – | 0.0592 | 0.0518 | 0.0592 | 0.0811 | 0.156 | 0.0644 | 0.0615 |
| G28F | – | 0.0594 | 0.0659 | 0.057 | 0.109 | 0.0616 | 0.105 | 0.0876 | 0.0648 | 0.0622 | – | 0.0673 | 0.0679 | – | 0.0958 | 0.056 | 0.0659 |
| M83K | 0.0587 | 0.007 | 0.0599 | 0.0485 | 0.146 | – | 0.0575 | 0.057 | 0.0534 | 0.0522 | – | 0.0527 | 0.0565 | – | 0.057 | 0.136 | – |
| M83C | 0.0613 | 0.0734 | 0.0505 | 0.0686 | 0.085 | 0.0647 | – | – | 0.0604 | 0.0714 | 0.0611 | 0.0628 | – | – | 0.0732 | – | – |
| S209F | 0.0604 | 0.0524 | – | 0.0803 | 0.115 | 0.0704 | 0.0925 | 0.0993 | 0.066 | 0.0963 | 0.0632 | 0.0567 | 0.0885 | 0.0989 | 0.0997 | 0.081 | – |
| K148W | 0.0651 | 0.0588 | 0.0688 | 0.0837 | 0.1 | 0.0544 | – | 0.0488 | 0.0652 | 0.0418 | 0.0731 | 0.0637 | 0.0788 | 0.0706 | 0.11 | 0.0734 | 0.06 |
| Q105Y | 0.0642 | – | 0.0766 | 0.0586 | 0.111 | 0.0631 | – | 0.0705 | 0.0227 | 0.0666 | 0.0898 | – | 0.0427 | 0.0858 | 0.159 | – | 0.0496 |
| S60P | 0.0491 | 0.055 | 0.0586 | 0.0491 | 0.0446 | 0.0474 | – | 0.0406 | 0.0597 | – | 0.0181 | – | – | – | – | 0.0681 | 0.0515 |
| F92E | 0.0619 | 0.0698 | 0.0609 | 0.056 | – | 0.0601 | 0.0651 | 0.0829 | 0.0696 | 0.0799 | 0.048 | 0.047 | 0.0653 | 0.0665 | 0.0954 | 0.0716 | 0.0718 |
| T30N | 0.0615 | 0.065 | 0.067 | 0.0719 | – | 0.0612 | 0.146 | – | 0.109 | 0.0675 | 0.0616 | 0.0598 | 0.0716 | 0.0699 | – | 0.0793 | – |
| V183R | 0.0357 | 0.0542 | 0.0504 | 0.0505 | 0.0627 | 0.0456 | – | 0.0478 | 0.0487 | 0.0441 | 0.063 | – | – | – | – | 0.0557 | – |
| V165A | 0.0416 | 0.0582 | 0.064 | 0.05 | 0.0691 | 0.0552 | 0.0457 | 0.0725 | 0.0336 | 0.0665 | 0.0319 | – | 0.049 | – | 0.0407 | – | 0.0589 |
| D128V | 0.0856 | – | 0.0767 | 0.0696 | 0.115 | 0.0457 | 0.0788 | 0.127 | 0.0753 | 0.0814 | – | 0.0763 | – | – | 0.107 | – | 0.0726 |
| T31K | 0.0534 | 0.0692 | 0.074 | 0.059 | 0.0612 | 0.0651 | 0.0457 | 0.0584 | 0.045 | 0.0397 | 0.0594 | – | 0.0641 | 0.0616 | 0.0552 | 0.0593 | – |
| T31D | 0.0658 | 0.0657 | 0.0613 | 0.0675 | 0.173 | 0.0576 | – | 0.0989 | 0.0648 | 0.0778 | 0.0438 | 0.0808 | 0.0696 | – | 0.137 | 0.0849 | 0.0718 |
| F6Q | – | 0.0288 | 0.0557 | 0.0608 | 0.132 | 0.0621 | 0.0901 | 0.074 | 0.074 | 0.0618 | – | 0.0666 | – | – | – | 0.0845 | 0.0609 |
| R81K | 0.0578 | 0.0592 | 0.0425 | 0.0643 | – | 0.0577 | – | 0.0459 | – | 0.0589 | 0.077 | 0.07 | – | – | – | 0.0736 | – |
| R81F | 0.0621 | 0.0621 | 0.0602 | 0.0693 | 0.0929 | – | – | 0.0722 | 0.0568 | 0.0537 | 0.0598 | 0.0738 | 0.0579 | – | 0.0708 | 0.0816 | 0.0489 |
